The values that follow come from PubChem BioAssay (NCI).

What all share (assay): NCI anticancer screen, dose series, 48 h
Assay [1] has as its system SNB-19 CNS.
Assay [2] deals with TK-10 renal.
The subject of assay [3] is MALME-3M melanoma.
For assay [4], the system named is PC-3 prostate.
Assay [5] deals with SK-MEL-2 melanoma.
For assay [6], the system named is SR leukemia.

Structures are written as SMILES.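 Growth conditions: 96-well plates. Treatment: test compound, 48 hours, 5 concentrations. Analysis: linear interpolation between bracketing concentrations; unreached endpoints set to highest concentration. Here, GI50 denotes the concentration required for 50% inhibition of growth.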 The source holds more than one record for some entries. This list holds those alone. There may be further records. Values given together repeat one measurement across runs, samples, wells, individuals or studies. Records carry a tag for their origin. The letters are not those of the source and start again with each entry.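 TGI is the concentration that stops growth completely.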

For the compound `CCc1nc(C(N)=O)c(Nc2ccc(N3CCC(N4CCN(C)CC4)CC3)c(OC)c2)nc1NC1CCOCC1`, the GI50 was 5.9 µM [sample A, mean of 2 tests] and 310 nM [sample B, 1 test] and 8.37 µM [sample C, mean of 2 tests] in assay [1]; 10.2 µM [sample A, 1 test] and 250 nM [sample B, mean of 2 tests] and 8.37 µM [sample C, 1 test] in assay [4]; 8.25 µM [sample A, mean of 2 tests] and 181 nM [sample B, 1 test] and 6.51 µM [sample C, mean of 2 tests] in assay [5]. The TGI in assay [2] was 15.7 µM [sample A, mean of 2 tests] and 778 nM [sample B, 1 test] and 16 µM [sample C, mean of 2 tests]; in assay [3], 25.3 µM [sample A, 1 test] and 699 nM [sample B, 1 test] and 21.9 µM [sample C, 1 test]; in assay [5], 25.1 µM [sample A, mean of 2 tests] and 426 nM [sample B, 1 test] and 26.6 µM [sample C, mean of 2 tests]; in assay [6], 733 nM [sample A, mean of 2 tests] and 44.3 nM [sample B, mean of 2 tests] and 7.75 µM [sample C, 1 test].
